The results in this text go back to the antibiotic and cytotoxicity screens of Wong et al. (2023).

The other results are listed elsewhere or left out.

In assay [1] the test system is HSkMC (human skeletal muscle cells). Put plainly: cytotoxicity call (relative viability < 0.9). As to conditions: 10 µM.
For assay [2], the system named is HepG2. Put plainly: cytotoxicity call (relative viability < 0.9). As to conditions: 10 µM.
Assay [3] has as its system S. aureus RN4220. Put plainly: growth inhibition call (relative growth <= 0.2). Particulars: 50 µM.

In the case of `Cc1ccc(S(=O)(=O)Nc2ccc3c(c2)C(=O)N([C@H](C)CO)C[C@H](C)[C@H](CN(C)Cc2ccc(-c4ccccc4)cc2)O3)cc1`, the cytotoxicity call in assay [1] and in assay [2] was “active” each time. Further, the growth inhibition call in assay [3] is “inactive”.
With `COCCn1cc2c(n1)[C@H](CNC(=O)COC)OCC2`, the cytotoxicity call in assay [1] and in assay [2] was “inactive” throughout. Also, in assay [3], the growth inhibition call was “inactive”.
As for `O=C(C[C@H]1C=C[C@H](NC(=O)Nc2cc(F)ccc2F)[C@H](CO)O1)NCCCN1CCOCC1`, the cytotoxicity call in assay [1] and in assay [2] was “inactive” in each case. For the same compound, the growth inhibition call in assay [3] was “inactive”.
For the compound `C/C=C/c1ccc2c(c1)O[C@@H](CN(C)Cc1ccc(C(=O)O)cc1)[C@@H](C)CN([C@H](C)CO)S2(=O)=O`, the cytotoxicity call in assay [1] and in assay [2] was “inactive” each time. In addition, in assay [3], the growth inhibition call is “inactive”.
With `COc1ccc(S(=O)(=O)N(C)C[C@@H]2OCCCC[C@H](C)Oc3ccc(NC(=O)C4CCCCC4)cc3C(=O)N([C@H](C)CO)C[C@@H]2C)cc1`, the cytotoxicity call in assay [1] and in assay [2] was “inactive” each time. Also, the growth inhibition call in assay [3] was “inactive”.
As for `COc1ccc(C#Cc2ccc3c(c2)O[C@@H](CN(C)C(=O)CN2CCOCC2)[C@@H](C)CN([C@@H](C)CO)S3(=O)=O)cc1`, the cytotoxicity call in assay [1] and in assay [2] was “inactive” each time. For the same compound, the growth inhibition call in assay [3] was “inactive”.
`C[C@@H]1CN([C@H](C)CO)C(=O)c2cc(NC(=O)NC3CCCCC3)ccc2O[C@@H](C)CCCCO[C@H]1CN(C)C(=O)CCC(F)(F)F`: the cytotoxicity call in assay [1] and in assay [2] was “inactive” throughout. For the same compound, the growth inhibition call in assay [3] was “inactive”.
Turning to `C[C@H](CO)N1C[C@H](C)[C@@H](CN(C)C(=O)C2CCOCC2)Oc2ncc(C#Cc3ccccc3F)cc2C1=O`, the cytotoxicity call in assay [1] and in assay [2] was “inactive” in each case. Moreover, the growth inhibition call in assay [3] is “inactive”.
With `C[C@@H]1CCCCO[C@@H](CN(C)C(=O)Nc2ccc3c(c2)OCO3)[C@@H](C)CN([C@@H](C)CO)C(=O)c2cc(NC(=O)Cc3ccccc3)ccc2O1`, the cytotoxicity call in assay [1] and in assay [2] was “inactive” throughout. For the same compound, the growth inhibition call in assay [3] was “inactive”.
As for `O=C([C@@H]1[C@@H](CO)[C@@H]2Cn3c(cccc3=O)[C@@H]2N1CC1CCCC1)N1CCOCC1`, the cytotoxicity call in assay [1] and in assay [2] was “inactive” throughout. In assay [3], the growth inhibition call is “inactive”.
Turning to `C[C@@H]1CCCCO[C@H](CN(C)C(=O)Nc2ccc(C(F)(F)F)cc2)[C@@H](C)CN([C@@H](C)CO)C(=O)c2cc(NC(=O)c3ccncc3)ccc2O1`, the cytotoxicity call in assay [1] and in assay [2] was “inactive” in each case. Also, the growth inhibition call in assay [3] is “inactive”.
Take `NCCCCCc1cnc[nH]1`: the cytotoxicity call in assay [1] and in assay [2] was “inactive” each time. Also, the growth inhibition call in assay [3] was “inactive”.
On to `C[C@H]1CN([C@@H](C)CO)C(=O)c2cc(C#CCN(C)C)cnc2O[C@@H]1CN(C)C(=O)c1cnccn1`, for which the cytotoxicity call in assay [1] and in assay [2] was “inactive” throughout. Besides, the growth inhibition call in assay [3] is “inactive”.
On to `Cc1cc(C(=O)Nc2cccc3c2O[C@@H](CN(C)Cc2ccc(C(=O)O)cc2)[C@H](C)CN([C@H](C)CO)C3=O)n(C)n1`, for which the cytotoxicity call in assay [1] and in assay [2] was “inactive” each time. Besides, the growth inhibition call in assay [3] was “inactive”.
For `COc1ccc(CN(C)C[C@H]2OCCCC[C@@H](C)Oc3ccc(NS(=O)(=O)c4c(C)noc4C)cc3C(=O)N([C@@H](C)CO)C[C@H]2C)cc1`, the cytotoxicity call in assay [1] and in assay [2] was “inactive” in each case. Further, the growth inhibition call in assay [3] is “inactive”.
`OC[C@H]1O[C@@H](Oc2cccc(O)c2CCCc2ccc(O)cc2)[C@@H](O)[C@@H](O)[C@@H]1O`: the cytotoxicity call in assay [1] and in assay [2] was “inactive” in each case. For the same compound, in assay [3], the growth inhibition call is “inactive”.
Regarding `COc1ccc(S(=O)(=O)N(C)C[C@H]2Oc3ccc(N(C)C)cc3C(=O)N([C@@H](C)CO)C[C@H]2C)cc1`, the cytotoxicity call in assay [1] and in assay [2] was “inactive” in each case. Besides, in assay [3], the growth inhibition call was “inactive”.
In the case of `COc1ccc(CN(C)C[C@@H]2Oc3ccc(NS(=O)(=O)c4cn(C)cn4)cc3CC(=O)N([C@H](C)CO)C[C@@H]2C)cc1`, the cytotoxicity call in assay [1] and in assay [2] was “inactive” in each case. Besides, in assay [3], the growth inhibition call is “inactive”.
As for `CC(C)NC(=O)Nc1ccc2c(c1)C(=O)N([C@@H](C)CO)C[C@@H](C)[C@H](CN(C)S(=O)(=O)c1ccc(Cl)cc1)O2`, the cytotoxicity call in assay [1] and in assay [2] was “inactive” in each case. In addition, the growth inhibition call in assay [3] is “inactive”.
`Cc1ccc(S(=O)(=O)N(C)C[C@@H]2Oc3ccc(NS(C)(=O)=O)cc3C(=O)N([C@@H](C)CO)C[C@@H]2C)cc1`: the cytotoxicity call in assay [1] and in assay [2] was “inactive” in each case. Also, in assay [3], the growth inhibition call is “inactive”.
Consider `CC(=N)NCCCC[C@@H](N)C(=O)O`, for which the cytotoxicity call in assay [1] and in assay [2] was “inactive” each time. Further, in assay [3], the growth inhibition call is “inactive”.
On to `C[C@H](CO)N1C[C@H](C)[C@@H](CN(C)Cc2ccc(Oc3ccccc3)cc2)Oc2c(NC(=O)CCC(F)(F)F)cccc2C1=O`, for which the cytotoxicity call in assay [1] and in assay [2] was “inactive” throughout. For the same compound, the growth inhibition call in assay [3] is “inactive”.
Take `C[C@H]1N(c2cnn(C)c2)C(=O)COC12CCN(S(C)(=O)=O)CC2`: the cytotoxicity call in assay [1] and in assay [2] was “inactive” throughout. The growth inhibition call in assay [3] was “inactive”.
With `C[C@@H]1CN([C@H](C)CO)C(=O)c2cc(NC(=O)c3ccncc3)ccc2O[C@@H]1CN(C)S(=O)(=O)c1ccccc1`, the cytotoxicity call in assay [1] and in assay [2] was “inactive” throughout. For the same compound, in assay [3], the growth inhibition call was “inactive”.
In the case of `COc1ccccc1-c1cnc2c(c1)C(=O)N([C@@H](C)CO)C[C@H](C)[C@@H](CN(C)C(=O)c1cccnc1)O2`, the cytotoxicity call in assay [1] and in assay [2] was “inactive” throughout. Moreover, in assay [3], the growth inhibition call was “inactive”.
As for `C[C@@H]1CCCCO[C@H](CN(C)C(=O)c2ccccc2)[C@@H](C)CN([C@H](C)CO)C(=O)c2cc(NC(=O)CCC(F)(F)F)ccc2O1`, the cytotoxicity call in assay [1] and in assay [2] was “inactive” each time. In assay [3], the growth inhibition call was “inactive”.
As for `C[C@@H]1CN([C@@H](C)CO)C(=O)c2cc(C#CCN(C)C)cnc2O[C@H]1CN(C)Cc1ccc2c(c1)OCO2`, the cytotoxicity call in assay [1] and in assay [2] was “inactive” throughout. The growth inhibition call in assay [3] is “inactive”.
With `C[C@@H]1CN([C@@H](C)CO)C(=O)c2cc(NS(=O)(=O)c3ccc(Cl)cc3)ccc2O[C@@H](C)CCCCO[C@@H]1CN(C)Cc1ccc(C(F)(F)F)cc1`, the cytotoxicity call in assay [1] and in assay [2] was “inactive” in each case. Further, in assay [3], the growth inhibition call was “inactive”.
